Data published in article PMC7615196, “PIM1 controls GBP1 activity to limit self-damage and to guard against pathogen infection” (Science (New York, N.Y.), 2023).
Residue numbers refer to the chain shown, from its start. Results are given in words; binding and its absence hold for the method and conditions named. In cells and extracts the contact can be indirect. Some entries that bind do so weakly or less than the wild type. Sequences can lack the tags named with a protein.

The chains behind the UniProt entries cited, without tags or fusion partners.
UniProt P11309: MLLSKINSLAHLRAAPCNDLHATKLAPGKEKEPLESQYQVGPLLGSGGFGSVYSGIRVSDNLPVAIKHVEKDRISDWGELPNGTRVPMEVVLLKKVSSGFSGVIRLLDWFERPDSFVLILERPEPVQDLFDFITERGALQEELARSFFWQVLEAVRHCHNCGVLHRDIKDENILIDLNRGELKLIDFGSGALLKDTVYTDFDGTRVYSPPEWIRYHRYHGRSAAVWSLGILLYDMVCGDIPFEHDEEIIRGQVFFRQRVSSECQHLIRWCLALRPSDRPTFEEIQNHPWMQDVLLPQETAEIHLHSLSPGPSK

T1: Flag-GBP1 WT (THP-1ΔGBP1+Tet-Flag-GBP1 cells) (human) (UniProt P32455)
T1 sequence: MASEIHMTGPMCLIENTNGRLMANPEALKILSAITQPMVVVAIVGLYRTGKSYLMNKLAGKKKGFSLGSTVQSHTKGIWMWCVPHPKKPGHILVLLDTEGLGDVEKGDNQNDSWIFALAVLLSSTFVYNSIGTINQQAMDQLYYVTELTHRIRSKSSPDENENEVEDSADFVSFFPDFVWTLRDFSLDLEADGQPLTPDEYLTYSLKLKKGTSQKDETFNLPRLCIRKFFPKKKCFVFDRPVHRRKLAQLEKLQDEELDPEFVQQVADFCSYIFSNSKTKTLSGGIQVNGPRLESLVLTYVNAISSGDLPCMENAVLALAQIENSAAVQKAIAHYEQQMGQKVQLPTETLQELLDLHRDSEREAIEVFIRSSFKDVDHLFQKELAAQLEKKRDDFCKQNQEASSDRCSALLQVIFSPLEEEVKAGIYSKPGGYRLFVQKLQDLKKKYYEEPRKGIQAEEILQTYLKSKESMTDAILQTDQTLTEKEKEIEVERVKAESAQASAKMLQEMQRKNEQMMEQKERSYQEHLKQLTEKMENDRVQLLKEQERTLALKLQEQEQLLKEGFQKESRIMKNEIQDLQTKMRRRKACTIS

T2: Flag-GBP1^S156A (transient expression) (human) (UniProt P32455)
T2 sequence: T1 sequence with S156A

T3: Flag-GBP1^R153A/P158A (transient expression) (human) (UniProt P32455)
T3 sequence: T1 sequence with R153A, P158A

T4: Flag-GBP1^T590A (transient expression) (human) (UniProt P32455)
T4 sequence: T1 sequence with T590A

T5: Flag-GBP1 WT (transient expression, pcDNA3.1(+)) (human) (UniProt P32455)
T5 sequence: T1 sequence

B1: HA-14-3-3β (natural protein)
chain: MTMDKSELVQKAKLAEQAERYDDMAAAMKAVTEQGHELSNEERNLLSVAYKNVVGARRSSWRVISSIEQKTERNEKKQQMGKEYREKIEAELQDICNDVLELLDKYLIPNATQPESKVFYLKMKGDYFRYLSEVASGDNKQTTVSNSQQAYQEAFEISKKEMQPTHPIRLGLALNFSVFYYEILNSPEKACSLAKTAFDEAIAELDTLNEESYKDSTLIMQLLRDNLTLWTSENQGDEGDAGEGEN
B2: HA-14-3-3γ (natural protein)
chain: MVDREQLVQKARLAEQAERYDDMAAAMKNVTELNEPLSNEERNLLSVAYKNVVGARRSSWRVISSIEQKTSADGNEKKIEMVRAYREKIEKELEAVCQDVLSLLDNYLIKNCSETQYESKVFYLKMKGDYYRYLAEVATGEKRATVVESSEKAYSEAHEISKEHMQPTHPIRLGLALNYSVFYYEIQNAPEQACHLAKTAFDDAIAELDTLNEDSYKDSTLIMQLLRDNLTLWTSDQQDDDGGEGNN
B3: HA-14-3-3ε (natural protein)
chain: MDDREDLVYQAKLAEQAERYDEMVESMKKVAGMDVELTVEERNLLSVAYKNVIGARRASWRIISSIEQKEENKGGEDKLKMIREYRQMVETELKLICCDILDVLDKHLIPAANTGESKVFYYKMKGDYHRYLAEFATGNDRKEAAENSLVAYKAASDIAMTELPPTHPIRLGLALNFSVFYYEILNSPDRACRLAKAAFDDAIAELDTLSEESYKDSTLIMQLLRDNLTLWTSDMQGDGEEQNKEALQDVEDENQ
B4: HA-14-3-3ζ (natural protein)
chain: MDKNELVQKAKLAEQAERYDDMAACMKSVTEQGAELSNEERNLLSVAYKNVVGARRSSWRVVSSIEQKTEGAEKKQQMAREYREKIETELRDICNDVLSLLEKFLIPNASQAESKVFYLKMKGDYYRYLAEVAAGDDKKGIVDQSQQAYQEAFEISKKEMQPTHPIRLGLALNFSVFYYEILNSPEKACSLAKTAFDEAIAELDTLSEESYKDSTLIMQLLRDNLTLWTSDTQGDEAEAGEGGEN
B5: HA-14-3-3η (natural protein)
chain: MGDREQLLQRARLAEQAERYDDMASAMKAVTELNEPLSNEDRNLLSVAYKNVVGARRSSWRVISSIEQKTMADGNEKKLEKVKAYREKIEKELETVCNDVLSLLDKFLIKNCNDFQYESKVFYLKMKGDYYRYLAEVASGEKKNSVVEASEAAYKEAFEISKEQMQPTHPIRLGLALNFSVFYYEIQNAPEQACLLAKQAFDDAIAELDTLNEDSYKDSTLIMQLLRDNLTLWTSDQQDEEAGEGN
B6: HA-14-3-3θ (natural protein)
chain: MEKTELIQKAKLAEQAERYDDMATCMKAVTEQGAELSNEERNLLSVAYKNVVGGRRSAWRVISSIEQKTDTSDKKLQLIKDYREKVESELRSICTTVLELLDKYLIANATNPESKVFYLKMKGDYFRYLAEVACGDDRKQTIDNSQGAYQEAFDISKKEMQPTHPIRLGLALNFSVFYYEILNNPELACTLAKTAFDEAIAELDTLNEDSYKDSTLIMQLLRDNLTLWTSDSAGEECDAAEGAEN

Legend:
[1] = target: T1, Flag-GBP1 WT (THP-1ΔGBP1+Tet-Flag-GBP1 cells) (human); assay: cross-linking + co-IP; as a2, cells treated with the GBP1:PIM1 interaction inhibitor NSC756093 (100 nM on cells)
[2] = target: T1, Flag-GBP1 WT (THP-1ΔGBP1+Tet-Flag-GBP1 cells) (human); assay: cross-linking + co-IP; crosslinking and immunoprecipitation of Flag-GBP1 from THP-1ΔGBP1+Flag-GBP1 cells treated with IFNγ±Dox, immunoblot
[3] = target: T2, Flag-GBP1^S156A (transient expression) (human); assay: co-IP; immunoprecipitation of co-transfected Flag-GBP1 (WT or mutants) and HA-tagged 14-3-3 proteins, washes with 260 mM NaCl, immunoblot
[4] = target: T3, Flag-GBP1^R153A/P158A (transient expression) (human); assay: as above
[5] = target: T4, Flag-GBP1^T590A (transient expression) (human); assay: as above
[6] = target: T5, Flag-GBP1 WT (transient expression, pcDNA3.1(+)) (human); assay: as above

| Molecule | binding [1] | binding [2] | binding [3] | binding [4] | binding [5] | binding [6] |
| --- | --- | --- | --- | --- | --- | --- |
| PIM1 (endogenous, IFNγ-exposed THP-1 cells) (from UniProt P11309 1-313) (enzyme) | no binding (condition: with NSC756093 (100 nM on cells)) | binds | – | – | – | – |
| B1 | – | – | no binding | no binding | binds | binds |
| B2 | – | – | no binding | no binding | binds | binds |
| B3 | – | – | no binding | no binding | binds | binds |
| B4 | – | – | no binding | no binding | binds | binds |
| B5 | – | – | no binding | no binding | binds | binds |
| B6 | – | – | no binding | no binding | binds | binds |
